We go through 40 sequences from article PMC12820563.

The list shows a part of the results. The list includes weakly bound sequences.

This assay has as its target T1, MBP-FoxP3dN (UniProt Q99JB6).
T1 sequence: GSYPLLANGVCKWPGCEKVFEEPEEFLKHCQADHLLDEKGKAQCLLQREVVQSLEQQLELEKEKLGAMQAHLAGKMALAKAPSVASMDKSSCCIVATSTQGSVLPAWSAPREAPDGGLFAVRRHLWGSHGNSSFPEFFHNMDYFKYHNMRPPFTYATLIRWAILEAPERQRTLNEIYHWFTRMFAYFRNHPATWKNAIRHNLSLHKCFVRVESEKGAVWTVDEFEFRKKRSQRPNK
Put plainly: PD-seq (MBP pull-down with sequencing). The settings on record: 20 mM Tris-HCl pH 7.5, 100 mM NaCl, 1.5 mM MgCl2, 0.4 uM protein, 0.1 uM dsDNA library, 30 min, room temperature, amylose pull-down; high values mean tight binding; double strand, one strand shown.
Regarding “GATGATTGTTCTCCCAGCTGATGAATTTAGGAAATCGAGTAAACAAATTTTCCTAATCTTTCTGTTCAAGCGCCATCTAC”, the binding signal (RPM ratio (pull-down/input)) was 0.384.
The result for “GATGATTGTTCTCCCAGCTGATGAATTGTCACACTCGAGTAAACAAATTTTCCTAATCTTTCTGTTCAAGCGCCATCTAC” reads 0.583; that for “GATGATTGTTCTCCCAGCTGATGAATTTTGCGTCTCGAGTAAACAAATTTTCCTAATCTTTCTGTTCAAGCGCCATCTAC”, 5.4; that for “GATGATTGTTCTCCCAGCTGATGAATTTTATAAATCGAGTAAACAAATTTTCCTAATCTTTCTGTTCAAGCGCCATCTAC”, 0.293.
For “GATGATTGTTCTCCCAGCTGATGAATTGTATCACTCGAGTAAACAAATTTTCCTAATCTTTCTGTTCAAGCGCCATCTAC”, the binding signal (RPM ratio (pull-down/input)) amounted to 1.87.
With “GATGATTGTTCTCCCAGCTGATGAATTGGGAGAGTCGAGTAAACAAATTTTCCTAATCTTTCTGTTCAAGCGCCATCTAC”, the binding signal (RPM ratio (pull-down/input)) was determined as 0.22.
Turning to “GATGATTGTTCTCCCAGCTGATGAATTTAAGTTCTCGAGTAAACAAATTTTCCTAATCTTTCTGTTCAAGCGCCATCTAC”, the binding signal (RPM ratio (pull-down/input)) was found to be 0.678.
For the sequence “GATGATTGTTCTCCCAGCTGATGAATTACTGGACTCGAGTAAACAAATTTTCCTAATCTTTCTGTTCAAGCGCCATCTAC”, the binding signal (RPM ratio (pull-down/input)) stood at 0.285.
In the case of “GATGATTGTTCTCCCAGCTGATGAATTCGGAGAATCGAGTAAACAAATTTTCCTAATCTTTCTGTTCAAGCGCCATCTAC”, the binding signal (RPM ratio (pull-down/input)) was found to be 0.185.
Take “GATGATTGTTCTCCCAGCTGATGAATTCTCCTTGTCGAGTAAACAAATTTTCCTAATCTTTCTGTTCAAGCGCCATCTAC”: the binding signal (RPM ratio (pull-down/input)) came out at 0.219.
For “GATGATTGTTCTCCCAGCTGATGAATTAGCGATCTCGAGTAAACAAATTTTCCTAATCTTTCTGTTCAAGCGCCATCTAC”, the binding signal (RPM ratio (pull-down/input)) was determined as 0.495.
The result for “GATGATTGTTCTCCCAGCTGATGAATTTGGACGTTCGAGTAAACAAATTTTCCTAATCTTTCTGTTCAAGCGCCATCTAC” reads 0.405; that for “GATGATTGTTCTCCCAGCTGATGAATTCGTTGACTCGAGTAAACAAATTTTCCTAATCTTTCTGTTCAAGCGCCATCTAC”, 3.19; that for “GATGATTGTTCTCCCAGCTGATGAATTCAACCTGTCGAGTAAACAAATTTTCCTAATCTTTCTGTTCAAGCGCCATCTAC”, 0.325.
The result for “GATGATTGTTCTCCCAGCTGATGAATTTTATTGATCGAGTAAACAAATTTTCCTAATCTTTCTGTTCAAGCGCCATCTAC” reads 5.5; that for “GATGATTGTTCTCCCAGCTGATGAATTTGCTGGTTCGAGTAAACAAATTTTCCTAATCTTTCTGTTCAAGCGCCATCTAC”, 4.92; that for “GATGATTGTTCTCCCAGCTGATGAATTGTGGATTTCGAGTAAACAAATTTTCCTAATCTTTCTGTTCAAGCGCCATCTAC”, 0.826.
On to “GATGATTGTTCTCCCAGCTGATGAATTTGAGGGTTCGAGTAAACAAATTTTCCTAATCTTTCTGTTCAAGCGCCATCTAC”, for which the binding signal (RPM ratio (pull-down/input)) came out at 0.68.
As for “GATGATTGTTCTCCCAGCTGATGAATTTGGTCCCTCGAGTAAACAAATTTTCCTAATCTTTCTGTTCAAGCGCCATCTAC”, the binding signal (RPM ratio (pull-down/input)) amounted to 0.485.
As for “GATGATTGTTCTCCCAGCTGATGAATTCCTGCCGTCGAGTAAACAAATTTTCCTAATCTTTCTGTTCAAGCGCCATCTAC”, the binding signal (RPM ratio (pull-down/input)) stood at 0.357.
Next, “GATGATTGTTCTCCCAGCTGATGAATTATTGAATTCGAGTAAACAAATTTTCCTAATCTTTCTGTTCAAGCGCCATCTAC”: 0.798; “GATGATTGTTCTCCCAGCTGATGAATTACTTTGTTCGAGTAAACAAATTTTCCTAATCTTTCTGTTCAAGCGCCATCTAC”: 0.95; “GATGATTGTTCTCCCAGCTGATGAATTAGGAGGATCGAGTAAACAAATTTTCCTAATCTTTCTGTTCAAGCGCCATCTAC”: 0.291.
The result for “GATGATTGTTCTCCCAGCTGATGAATTGTATCGATCGAGTAAACAAATTTTCCTAATCTTTCTGTTCAAGCGCCATCTAC” reads 0.916.
“GATGATTGTTCTCCCAGCTGATGAATTAAAGGATTCGAGTAAACAAATTTTCCTAATCTTTCTGTTCAAGCGCCATCTAC”: the binding signal (RPM ratio (pull-down/input)) was determined as 0.287.
As for “GATGATTGTTCTCCCAGCTGATGAATTAGCACCTTCGAGTAAACAAATTTTCCTAATCTTTCTGTTCAAGCGCCATCTAC”, the binding signal (RPM ratio (pull-down/input)) is 0.404.
With “GATGATTGTTCTCCCAGCTGATGAATTGCCGGGATCGAGTAAACAAATTTTCCTAATCTTTCTGTTCAAGCGCCATCTAC”, the binding signal (RPM ratio (pull-down/input)) is 0.384.
With “GATGATTGTTCTCCCAGCTGATGAATTTTCGAACTCGAGTAAACAAATTTTCCTAATCTTTCTGTTCAAGCGCCATCTAC”, the binding signal (RPM ratio (pull-down/input)) is 0.24.
In the case of “GATGATTGTTCTCCCAGCTGATGAATTTTGTAAATCGAGTAAACAAATTTTCCTAATCTTTCTGTTCAAGCGCCATCTAC”, the binding signal (RPM ratio (pull-down/input)) came out at 1.03.
Next, “GATGATTGTTCTCCCAGCTGATGAATTACGCTAGTCGAGTAAACAAATTTTCCTAATCTTTCTGTTCAAGCGCCATCTAC”: 1.23.
Take “GATGATTGTTCTCCCAGCTGATGAATTATCAGATTCGAGTAAACAAATTTTCCTAATCTTTCTGTTCAAGCGCCATCTAC”: the binding signal (RPM ratio (pull-down/input)) came to 0.293.
Next, “GATGATTGTTCTCCCAGCTGATGAATTTTATTCCTCGAGTAAACAAATTTTCCTAATCTTTCTGTTCAAGCGCCATCTAC”: 0.565.
The result for “GATGATTGTTCTCCCAGCTGATGAATTTTACCGCTCGAGTAAACAAATTTTCCTAATCTTTCTGTTCAAGCGCCATCTAC” reads 0.282; that for “GATGATTGTTCTCCCAGCTGATGAATTAAGTGGATCGAGTAAACAAATTTTCCTAATCTTTCTGTTCAAGCGCCATCTAC”, 0.634.
Next, “GATGATTGTTCTCCCAGCTGATGAATTGGTACGCTCGAGTAAACAAATTTTCCTAATCTTTCTGTTCAAGCGCCATCTAC”: 0.466; “GATGATTGTTCTCCCAGCTGATGAATTCCGCCACTCGAGTAAACAAATTTTCCTAATCTTTCTGTTCAAGCGCCATCTAC”: 6.15.
Consider “GATGATTGTTCTCCCAGCTGATGAATTGAACACCTCGAGTAAACAAATTTTCCTAATCTTTCTGTTCAAGCGCCATCTAC”, for which the binding signal (RPM ratio (pull-down/input)) was determined as 0.395.
Next, “GATGATTGTTCTCCCAGCTGATGAATTCGCGTTATCGAGTAAACAAATTTTCCTAATCTTTCTGTTCAAGCGCCATCTAC”: 1.22.
As for “GATGATTGTTCTCCCAGCTGATGAATTTTTAATTTCGAGTAAACAAATTTTCCTAATCTTTCTGTTCAAGCGCCATCTAC”, the binding signal (RPM ratio (pull-down/input)) worked out at 0.322.
Next, “GATGATTGTTCTCCCAGCTGATGAATTTAGATCATCGAGTAAACAAATTTTCCTAATCTTTCTGTTCAAGCGCCATCTAC”: 0.644.
